According to patent US20230226214A1, “BIFUNCTIONAL BRIDGING COMPOSITIONS FOR VIRAL TRANSDUCTION” (Lycia Therapeutics, Inc., priority 2020, published 2023):

B1: Compound I-7-conjugated ADK8 antibody: "ADK8 conjugated to Compound I-7 (ITX-16590)"; ADK8 is the anti-AAV8 antibody (conjugate)
heavy: DVKLVESGGGLVKPGGSLKLSCADSGFSFSSYSMSWVRQTPEKRLEWVATITSGGDYTYYPDSVKGRFTISKDNARNTLYLQMSSLRSEDTAMYYCIRDFYGSTYWYFDVWGAGTTVTVSSAKTTAPSVYPLAPVCGDTTGSSVTLGCLVKGYFPEPVTLTWNSGSLSSGVHTFPAVLQSDLYTLSSSVTVTSSTWPSQSITCNVAHPASSTKVDKKIEPRGPTIKPCPPCKCPAPNAAGGPSVFIFPPKIKDVLMISLSPIVTCVVVDVSEDDPDVQISWFVNNVEVHTAQTQTHREDYNSTLRVVSALPIQHQDWMSGKEFKCKVNNKDLGAPIERTISKPKGSVRAPQVYVLPPPEEEMTKKQVTLTCMVTDFMPEDIYVEWTNNGKTELNYKNTEPVLDSDGSYFMYSKLRVEKKNWVERNSYSCSVVHEGLHNHHTTKSFSRTPGK
light: DVVMTQTPLTLSVTIGQPASISCKSSQSLLESDGKTYLNWLLQRPGQSPKRLIYLVSTLDSGVPDRFTGSGSGTDFTLKISRLEAEDLGVYYCWQGTHFPPTFGGGTKLEIKRADAAPTVSIFPPSSEQLTSGGASVVCFLNNFYPKDINVKWKIDGSERQNGVLNSWTDQDSKDSTYSMSSTLTLTKDEYERHNSYTCEATHKTSTSPIVKSFNRNEC
B2: Anti-AAV antibody compound conjugate: "Compound I-7 conjugated ... anti-AAV8 antibody (ADK8)" (conjugate)
heavy: B1 heavy
light: B1 light

System: human 2V6·11 cells
Assay: Transduction of AAV8-luciferase linked to a cell surface binding moiety via a bridging antibody
Format: cell-based
Settings: AAV8-CMV-Luciferase MOI 5×10^4 preincubated with 1.56-200 ng antibody, 24 hours
Protocol: In order to assess transduction efficiency of luciferase-encoding AAV8 particles linked to a cell surface binding moiety via an antibody, cells were transduced with AAV8-luciferase and either unconjugated anti-AAV8 antibody (ADK8) or ADK8 conjugated to Compound I-7 (ITX-16590) and then analyzed for luciferase expression.
In performing these experiments, human 2V6·11 cells (Elab Science) in DMEM (Gibco) with 10% fetal bovine serum (Gibco) were seeded onto 96-well plates (Nunc) 24 hours prior to infection. AAV8-CMV-Luciferase (Vector Biolabs) at a multiplicity of infection (MOI) of 5×10^4 were preincubated with 1.56-200 ng of ADK8 antibody or Compound I-7 (ITX-16590) conjugated ADK8 antibody for 30 minutes at 37° C. and then added to cells. After 24 hours, the cells were washed with PBS and analyzed for luciferase levels using a luciferase assay kit (Promega) and a luminometer.

Molecule	transduction efficiency of AAV8-luciferase
B1	increased compared to transduction of AAV8-luciferase alone
B2	increase transduction efficiency
